The campaign covered roughly 310,000 compounds. About 2,200 (0.71%) showed an effect of 50% or more. The effect is printed as a negative number. Some of the results follow.
Each compound was assayed against human ether-à-go-go-related gene (hERG) potassium channel (human, UniProt Q12809) (assay: primary screen, population patch clamp on CHO cells stably expressing hERG).
Sequence of human ether-à-go-go-related gene (hERG) potassium channel (Q12809 whole entry, looked up): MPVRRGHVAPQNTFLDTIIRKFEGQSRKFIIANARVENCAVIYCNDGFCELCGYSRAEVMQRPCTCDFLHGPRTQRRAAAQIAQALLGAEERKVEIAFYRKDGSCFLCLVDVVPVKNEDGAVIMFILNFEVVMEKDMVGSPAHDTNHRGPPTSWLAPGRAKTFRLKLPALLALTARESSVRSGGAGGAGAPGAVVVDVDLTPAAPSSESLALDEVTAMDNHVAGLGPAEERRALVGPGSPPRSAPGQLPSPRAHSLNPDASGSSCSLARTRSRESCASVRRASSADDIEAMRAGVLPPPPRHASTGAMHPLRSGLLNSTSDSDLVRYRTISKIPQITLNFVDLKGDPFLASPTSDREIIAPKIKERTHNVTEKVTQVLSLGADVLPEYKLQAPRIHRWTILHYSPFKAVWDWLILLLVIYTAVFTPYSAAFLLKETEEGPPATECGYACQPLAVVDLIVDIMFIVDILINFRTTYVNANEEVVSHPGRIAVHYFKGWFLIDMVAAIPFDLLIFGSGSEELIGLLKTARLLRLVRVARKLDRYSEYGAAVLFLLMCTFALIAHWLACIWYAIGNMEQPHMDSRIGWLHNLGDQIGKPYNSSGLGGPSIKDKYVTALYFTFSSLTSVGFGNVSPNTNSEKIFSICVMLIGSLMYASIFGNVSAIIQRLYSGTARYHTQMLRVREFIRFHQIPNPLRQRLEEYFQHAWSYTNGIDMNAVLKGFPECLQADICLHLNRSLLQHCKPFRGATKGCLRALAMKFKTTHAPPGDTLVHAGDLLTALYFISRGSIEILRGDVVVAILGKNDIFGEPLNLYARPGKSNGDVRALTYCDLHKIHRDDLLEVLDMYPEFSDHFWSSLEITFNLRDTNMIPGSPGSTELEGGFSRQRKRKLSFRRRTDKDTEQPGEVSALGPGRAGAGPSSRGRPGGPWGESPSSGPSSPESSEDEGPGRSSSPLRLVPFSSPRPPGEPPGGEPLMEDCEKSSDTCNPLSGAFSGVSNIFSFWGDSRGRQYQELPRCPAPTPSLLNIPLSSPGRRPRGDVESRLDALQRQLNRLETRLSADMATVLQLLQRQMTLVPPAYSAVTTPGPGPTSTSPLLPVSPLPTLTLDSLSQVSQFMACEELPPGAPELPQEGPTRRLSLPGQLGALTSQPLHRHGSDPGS

Row | Compound | hERG current change (%, negative = inhibition) at 1uM [%]
1 | CCCCSC1=C(C#N)C(c2ccccc2C)C(C(=O)OCC)C(=O)N1 (centres unmarked) | 19.4
2 | COc1ccc(NC(=O)CSCC(=O)N(C)Cc2cccc(OC)c2OC)cc1 | 0.451
3 | COc1ccc(CCNC(=O)C2CC3Cn4c(nc5cc(C)c(C)cc54)C3N2C)cc1 (centres unmarked) | -4.22
4 | Cc1cc(C)cc(NC(=S)NCc2ccc3[nH]c4c(c3c2)CCCC4)c1 | 19.2
5 | O=C(NCc1nnc2c(C(F)(F)F)cc(Cl)cn12)c1ccc(Br)o1 | 13
6 | CCOc1cc(CNc2ccc3c(c2)OCCO3)cc(Br)c1OC | 8.44
7 | COc1ccc(OCCCC(=O)OCC(=O)c2ccc3c(c2)NC(=O)CO3)cc1 | 11.9
8 | COc1ccccc1N1CCN(C(=O)C(C)N(c2ccc(C)cc2)S(C)(=O)=O)CC1 (centres unmarked) | 4.36
9 | CCC(C)c1ccccc1OCCCNC1CCCC1.O=C(O)C(=O)O (centres unmarked) | 1.26
10 | CCSc1oc(-c2ccco2)nc1S(=O)(=O)c1ccccc1 | 6.59
11 | OC(CNC1CCCCC1)C(F)(F)F (centres unmarked) | 3.47
12 | O=C(NCC(=O)N1CCN(S(=O)(=O)/C=C/c2ccccc2)CC1)c1ccccc1F | 17.7
13 | CN1CCc2nc(SCC(=O)Nc3ccc(Cl)cc3)c(C#N)cc2C1 | -5.05
14 | CC(C)=CCN1CCN(Cc2cccnc2)CC1CCO (centres unmarked) | 10.2
15 | CCOC(=O)C1=C(C)OC(N)=C(C#N)C1c1cncc(-c2ccc(F)cc2)c1 (centres unmarked) | -1.64
16 | O=C(Cc1c(F)cccc1Cl)NCc1cccnc1 | 14.9
17 | CCN1CCN(C(=O)c2c(-c3ccccc3)noc2C)CC1 | 9.87
18 | CCCN(CC(=O)Nc1ccccc1C)C(=O)c1ccc2ccccc2n1 | 8.04
19 | COCCNC(=O)C1CC2Cn3c(nc4cc(C)c(C)cc43)C2N1C (centres unmarked) | 1.97
20 | CC1(C)NC(=O)N(CCOCCSc2ccccc2)C1=O | 5.85
21 | O=S(=O)(NCc1ccc2c(c1)OCO2)c1ccc(F)c(F)c1 | 2.68
22 | CC(=O)c1ccc(S(=O)(=O)N2CCc3ccccc3C2)cc1 | 12.6
23 | Cn1c(=O)c(=O)n(C)c2cc(S(=O)(=O)NCCOc3ccccc3Cl)ccc21 | 10.1

Row | Compound | hERG current change (%, negative = inhibition) at 1uM [%]
24 | CCOC(=O)N1CCN(C(=O)CSCC(=O)Nc2nc(-c3ccc(Cl)s3)cs2)CC1 | -6.91
25 | Cc1ccc(S(=O)(=O)N(CC(=O)N2CCC(C)CC2)c2cccc(C)c2)cc1 | -1.89
26 | CCOC(=O)CN1N=C(c2ccc(Cl)s2)CSC1=O | 18.8
27 | Cc1ccc(CNC(=O)NCc2ccccc2)cc1 | 13.4
28 | C=CCOc1cccc(CNc2ccc3[nH]c(=O)[nH]c3c2)c1 | 8.06
29 | Cc1ccc2nc(C)c(C(=O)N/N=C/c3ccc(N4CCOCC4)cc3)cc2c1 | 0.121
30 | CCOC(=O)CCCNC(=O)COC(=O)c1cc2ccccc2cc1O | 7.61
31 | COc1ccc(-c2noc(CN(C)S(=O)(=O)c3ccc(Cl)cc3)n2)cc1OC | -11.5
32 | CC1CC(C)(C)NCc2ccccc21.Cl (centres unmarked) | 15.1
33 | Cn1c2ccccc2c(=O)c2cc(C#Cc3ccccn3)ccc21 | 13.5
34 | Cc1ccc(C(=O)C2=C(O)C(=O)N(Cc3cccnc3)C2c2cccc([N+](=O)[O-])c2)o1 (centres unmarked) | -5.85
35 | CC(=O)c1ccc(Nc2nc(C)cc(C)n2)cc1 | 8.03
36 | COc1ccc(C2CCN(Cc3cccnc3)CC2O)cc1 (centres unmarked) | -1.46
37 | COc1cccc(CN2CCN(C(=O)Nc3ccc([N+](=O)[O-])cc3)CC2)c1 | -19.8
38 | COc1ccccc1NC(=O)c1ccc(NC(=O)CNC(=O)c2ccc(OC)c(OC)c2)cc1 | 7.95
39 | COc1cc2c(cc1OC)C(C1c3cc4c(cc3CCN1C)OCO4)OC2=O (centres unmarked) | 15.2
40 | COc1ccc(-c2nc(CS(=O)(=O)CC(=O)NCCCc3ccccc3)c(C)o2)cc1 | 4.47
41 | O=C(CNS(=O)(=O)c1ccc2ccccc2c1)Nc1ccc(F)c(F)c1F | 1.87
42 | O=C(O)CN1C(=O)/C(=C\c2cn(-c3ccccc3)nc2-c2ccccc2)SC1=S | 4.47
43 | C=C(C)C(=O)N1CC2(CC(c3cccc(NC(=O)CCCCC)c3)=NO2)C[C@H]1C(N)=O (some centres unmarked) | 7.28
44 | O=C(O)CSc1nnc(CNc2ccc(Cl)cc2)n1Cc1ccccc1 | -16.2
45 | CCO[C@H]1OC(C(=O)N2CCN(Cc3ccc4c(c3)OCO4)CC2)=C[C@@H](C2CCCCC2)[C@@H]1CCCO | -9.87
46 | CCOCCCNC(=S)N1CCC(NC(=O)C2CCCCC2)CC1 | 12

Row | Compound | hERG current change (%, negative = inhibition) at 1uM [%]
47 | O=C(c1ccncc1)N1CCN(C(=O)c2cccs2)CC1 | 10.9
48 | COc1cc(/C=N/N2C(=O)c3ccccc3C2=O)ccc1O | 5.98
49 | Cc1ccc2c(nc3s/c(=C\c4ccc(-c5ccccc5C(=O)O)o4)c(=O)n32)c1C | 11.6
50 | COc1ccc(CCNC(=O)[C@@H](NC(=O)c2ccccc2F)C(C)C)cc1OC | 3.87
51 | Cc1c(CC(=O)NCCCCCC(=O)O)c(=O)oc2cc3occ(-c4ccccc4)c3cc12 | 13.1
52 | CCCCOCCCN1CC(=O)N2[C@@H](Cc3c([nH]c4ccccc34)C2(C)C)C1=O | 11.6
53 | CN(Cc1cnccn1)C(=O)CC1C(=O)NCCN1Cc1cccc(F)c1 (centres unmarked) | 5.09
54 | COc1ccccc1CN1CCC(CNS(=O)(=O)c2cc(-c3cc(C)no3)ccc2C)CC1 | -22
55 | Cc1nc2ccc(NC(=O)C3CCCCC3)cc2s1 | -4.11
56 | Clc1ccccc1CO/N=C1\CCCc2nonc21 | -0.605
57 | Cc1ccccc1N1C(=O)c2cc(S(N)(=O)=O)c(Cl)cc2NC1C (centres unmarked) | 16
58 | O=P1(NCc2ccco2)COc2ccccc2OC1 | 13.4
59 | CC12CCC3C(CC=C4CC(O)CCC43C)C1C/C(=C\c1ccccc1F)C2=O (centres unmarked) | -1.81
60 | CC(=O)Nc1ccc(Oc2cnccn2)cc1 | 2.59
61 | CCNS(=O)(=O)c1ccc(-c2ccc(-n3cnnn3)cc2)cc1 | 4.69
62 | Cn1cc([C@@H]2C[C@H]3CN(C4CCCC4)C(=O)[C@]34CCCN24)c(-c2ccccc2)n1 | -0.828
63 | CCCCOc1ccc(/C=C/C2=CC(C)(C)NC(=S)N2)cc1OCC | 4.18
64 | CCCc1cc(=O)[nH]c(SCc2nc3ccccc3o2)n1 | 11.7
65 | COCCNC(=S)N/N=C(\C)c1ccc(OC)cc1 | 9.25
66 | O=C1C(Cl)=C(N2CCN(Cc3ccccc3)CC2)C(=O)N1c1ccccc1 | 8.07
67 | Cc1ccccc1CN1CCN(CC(=O)NCc2ccccc2)CC1 | 3.18
68 | Cc1ccc(C(=O)Nc2cc(C)nn2CCC#N)cc1 | -5.59
69 | Cc1ccccc1NC(=O)CSc1nnc(C)c2ccccc12 | 6.96

Row | Compound | hERG current change (%, negative = inhibition) at 1uM [%]
70 | COc1cccc(C2CC(=O)N3CN(c4cccc(Cl)c4C)CSC3=C2C#N)c1OC (centres unmarked) | 8.5
71 | COCc1cc(=O)[nH]c(-c2ccc(C(F)(F)F)cc2)n1 | 10.9
72 | Cc1ccc(C(=O)NC(=S)Nc2ccc3c(c2)OCCO3)c(C)c1 | 7.55
73 | O=C1Nc2ccc(Br)cc2C(c2ccccc2Cl)=NC1O (centres unmarked) | -22.2
74 | CC(=O)NC(Cc1cccc(F)c1)C(=O)NC1CCN(C(=O)c2cccc(C)c2)CC1 (centres unmarked) | -3.38
75 | CCc1sc(N(C(=O)Cc2ccccc2)c2ccc(F)cc2)nc1-c1ccccc1 | 15.4
76 | CCOc1ccc(NC(=O)c2cccc(-n3cccc3)c2)cc1S(=O)(=O)N1CCOCC1 | 0.609
77 | COCCNC(=S)Nc1ccccc1[N+](=O)[O-] | 19.3
78 | O=C(NCc1ccccc1)C(c1ccccc1F)N(C(=O)c1csnn1)C1CCCC1 (centres unmarked) | 9.59
79 | Cc1ccc(-c2csc(NC(=O)CSc3ncn(-c4ccccc4)n3)n2)cc1 | 8.31
80 | CCn1cc([N+](=O)[O-])c(C(=O)NCc2ccc(Cl)cc2)n1 | 2.4
81 | O=C(NCc1ccncc1)C1=NN(c2ccccc2)C(=O)CC1 | 9.76
82 | COc1cc(CC(=O)N/N=C/c2ccccc2)c([N+](=O)[O-])cc1OC | 5.94
83 | Cc1cc(C(=O)Nc2ccccc2Cl)n(-c2ccccc2)n1 | 12.8
84 | Cc1ccc(CSc2nncn2-c2ccccn2)cc1 | 11.3
85 | COc1ccc(CN(C)CC(=O)c2c(N)n(Cc3ccccc3)c(=O)n(C)c2=O)c(OC)c1 | -18.2
86 | COc1ccccc1C(=O)NC1CCCCCCC1 | 11.8
87 | O=C(c1cnccn1)N(Cc1ccco1)C1(C(=O)NC2CCCC2)CCCCC1 | 8.62
88 | Fc1cccc(Cc2noc(CN3CCC(c4ccncc4)CC3)n2)c1 | -1.98
89 | COc1cccc(CNS(=O)(=O)c2cc(Br)cc3c2N(C(C)=O)C(C)C3)c1 (centres unmarked) | -6.69

Source: paper PMC4336329 (PLoS ONE, 2015)
